Results from US20200109190A1 (AstraZeneca / MedImmune, published 2020).

Tests used:
S. aureus HlgB = molecular target: T1, S. aureus HlgB (Staphylococcus aureus, UniProt P0A075 27-325); assay: BLI (Octet384), antibody captured on anti-human IgG Fc biosensors, antigen in solution
T1 construct: also called HIgB
T1 sequence: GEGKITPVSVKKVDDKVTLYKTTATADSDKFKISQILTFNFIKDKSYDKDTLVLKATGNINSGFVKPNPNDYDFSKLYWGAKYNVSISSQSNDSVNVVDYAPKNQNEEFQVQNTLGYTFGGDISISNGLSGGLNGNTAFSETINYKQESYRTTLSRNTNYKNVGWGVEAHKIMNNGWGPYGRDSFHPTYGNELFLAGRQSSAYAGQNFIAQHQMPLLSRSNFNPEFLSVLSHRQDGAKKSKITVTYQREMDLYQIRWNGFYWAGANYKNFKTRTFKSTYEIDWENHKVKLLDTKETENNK

S. aureus LukF [1] = molecular target: T2, S. aureus LukF (Staphylococcus aureus); assay: as above
S. aureus LukD = molecular target: T3, S. aureus LukD (Staphylococcus aureus, UniProt Q2FXB1 27-327); assay: as above
T3 sequence: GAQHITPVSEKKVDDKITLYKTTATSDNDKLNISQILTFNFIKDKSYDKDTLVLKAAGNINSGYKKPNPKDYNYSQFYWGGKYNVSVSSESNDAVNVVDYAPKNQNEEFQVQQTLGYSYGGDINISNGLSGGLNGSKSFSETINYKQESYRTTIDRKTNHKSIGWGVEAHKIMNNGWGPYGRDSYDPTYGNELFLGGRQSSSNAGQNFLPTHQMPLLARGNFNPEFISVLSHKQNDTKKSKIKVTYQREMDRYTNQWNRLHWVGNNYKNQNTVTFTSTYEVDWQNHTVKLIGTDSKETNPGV

HlgAB [2] = molecular target: T4, HlgAB (Staphylococcus aureus, UniProt P0A074 30-309); assay: cell-based or functional assay
T4 sequence 1: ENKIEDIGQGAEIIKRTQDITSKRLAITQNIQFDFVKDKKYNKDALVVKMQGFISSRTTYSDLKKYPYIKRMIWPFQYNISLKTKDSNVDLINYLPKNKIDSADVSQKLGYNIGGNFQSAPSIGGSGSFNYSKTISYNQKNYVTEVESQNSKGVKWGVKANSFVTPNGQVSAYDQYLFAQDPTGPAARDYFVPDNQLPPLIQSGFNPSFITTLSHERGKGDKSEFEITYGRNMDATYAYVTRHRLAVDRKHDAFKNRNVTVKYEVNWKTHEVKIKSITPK
T4 sequence 2: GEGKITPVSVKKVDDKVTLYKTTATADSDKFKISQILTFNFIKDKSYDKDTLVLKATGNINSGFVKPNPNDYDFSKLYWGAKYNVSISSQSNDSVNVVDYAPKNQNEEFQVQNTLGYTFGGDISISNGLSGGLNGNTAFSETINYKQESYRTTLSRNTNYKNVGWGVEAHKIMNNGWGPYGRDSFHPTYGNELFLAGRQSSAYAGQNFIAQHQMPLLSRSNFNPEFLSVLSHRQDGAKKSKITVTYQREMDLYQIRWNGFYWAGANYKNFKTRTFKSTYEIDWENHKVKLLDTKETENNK

LukSF [3] = molecular target: T5, LukSF (Staphylococcus aureus); assay: cell-based or functional assay
LukED = LukED (Staphylococcus aureus, UniProt O54081 29-314); assay: cell-based or functional assay
LukED, sequence (O54081 29-314 limits assumed): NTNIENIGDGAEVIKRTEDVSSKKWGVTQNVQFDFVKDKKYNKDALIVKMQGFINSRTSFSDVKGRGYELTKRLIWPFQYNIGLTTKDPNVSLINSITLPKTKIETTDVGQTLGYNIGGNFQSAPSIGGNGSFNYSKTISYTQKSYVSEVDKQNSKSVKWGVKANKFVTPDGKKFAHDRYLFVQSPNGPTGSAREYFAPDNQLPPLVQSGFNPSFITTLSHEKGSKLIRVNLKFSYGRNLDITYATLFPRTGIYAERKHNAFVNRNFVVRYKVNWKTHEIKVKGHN

LukSF [4] = molecular target: T5, LukSF; assay: cell-based or functional assay; remark: listed apart in the source
HlgAB [5] = molecular target: T4, HlgAB; assay: cell-based or functional assay; remark: listed apart in the source
LukSF [6] = molecular target: T5, LukSF; assay: cell-based or functional assay; remark: listed apart in the source
HlgAB [7] = molecular target: T4, HlgAB; assay: cell-based or functional assay; remark: listed apart in the source
LukSF [8] = molecular target: T5, LukSF; assay: cell-based or functional assay; remark: listed apart in the source
S. aureus LukF [9] = molecular target: T2, S. aureus LukF; assay: method not stated at Table 8; BLI (Octet) is described in Example 4

B1: SAN481 (antibody)
heavy: QLQLVESGGGAVQPGRSLKLSCAASGFNFSTYAMHWVRQAPGRGLEWVAVTSFDGSNEYYIDSVKGRFTISRDNTKNTLYLQMTGLRVEDTALYFCARDEYTGGWYSVGYWGQGTLVTVSSASTKGPSVFPLAPSSKSTSGGTAALGCLVKDYFPEPVTVSWNSGALTSGVHTFPAVLQSSGLYSLSSVVTVPSSSLGTQTYICNVNHKPSNTKVDKRV[left out - human IgG1 Fc]
light: QSVLTQPPSASGTPGQRVTISCSGNSYNIGSNSVYWYQQFPGTAPKLLISRSIQRPSGVPDRFSGSKSVTSASLAISGLRSEDEADYYCAAWDDSLRAWVFGGGTKLTVLGQPKAAPSVTLFPPSSEELQANKATLVCLISDFYPGAVTVAWKADSSPVKAGVETTTPSKQSNNKYAASSYLSLTPEQWKSHRSYSCQVTHEGSTVEKTVAPTECS
notes: also called WT
- Kd (S. aureus HlgB): 0.151 nM
- koff (S. aureus HlgB): 4.38e-05 s⁻¹
- kon (S. aureus HlgB): 290000 M⁻¹ s⁻¹
- Kd (S. aureus LukF [1]): 0.0993 nM
- koff (S. aureus LukF [1]): 3.99e-05 s⁻¹
- kon (S. aureus LukF [1]): 402000 M⁻¹ s⁻¹
- Kd (S. aureus LukD): < 0.001 nM
- koff (S. aureus LukD): < 1e-07 s⁻¹
- kon (S. aureus LukD): 348000 M⁻¹ s⁻¹
- IC50 (HIgAB) HL-60; Dark sample (HlgAB [2]): 0.569 µg/mL
- IC50 (LukSF) HL-60; Dark sample (LukSF [3]): 0.16 µg/mL
- IC50 (read off the curve) (LukED): ~3 µg/mL
- IC50 (read off the curve) (LukSF [4]): ~0.4 µg/mL
- IC50 (HIgAB) HL-60 (HlgAB [5]): 0.57 µg/mL
- IC50 (LukSF) HL-60 (LukSF [6]): 0.16 µg/mL
- IC50 for HIgAB (HlgAB [7]): 0.569 µg/mL
- IC50 for LukSF (LukSF [8]): 0.16 µg/mL
- Kd (S. aureus LukF [9]): 0.163 nM
